T1: UNK ZnF1-3 (human, UniProt Q9C0B0 31-174)
T1 sequence: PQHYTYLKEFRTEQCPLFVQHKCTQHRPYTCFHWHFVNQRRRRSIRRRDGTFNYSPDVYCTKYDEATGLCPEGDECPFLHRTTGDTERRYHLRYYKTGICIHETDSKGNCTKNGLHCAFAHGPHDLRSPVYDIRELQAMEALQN

B1: chr10:70097624:70097625:+_ENSG00000096746_ENST00000354695|hu_mus|motif|central (ssRNA)
RNA: GGGAGUUCUACAGUCCGACGAUCCUUUGAUUUCACUCCUGCUACUCCUGAAGAUCUCAAUAUACCUUGAAAGAACUGAACGGUUUCCUCUUUGCUGCAACCAAAUGGCAGUCCACGAAGUCGCACGGUCCCAUCGCUAGCGUCCAACAGAGGAUUGAGCAUCA
B2: chr7:135612270:135612271:-_ENSG00000105887_ENST00000393085|hu_mus|hu_hu_hu_mus_False|8_38 (ssRNA)
RNA: GGGAGUUCUACAGUCCGACGAUCGUUUUUUUCUGAGAUGUUAAAUAGUACUUCAGUGGAAAACAAAACUUAACCUUUUAUUAAUGCGUGUUGUACCAGAAAGCAAAAUUUUAGCUUCAUUUAUUCACUCAAAAUAUCAUUAAGCAACAGAGGAUUGAGCAUCA
B3: chr9:106594412:106594413:-_ENSMUSG00000040661_ENSMUST00000046502|mus_mus|FALSE|FALSE (ssRNA)
RNA: GGGAGUUCUACAGUCCGACGAUCCACUGUGAUGUCUAACUCAGUAGCCAUAAACCCUCACACUCUGACUGACACUUCAAAAAAGAUCAAUUCAUUUCUUUUUAGUUUACUCUUAGUUUUUCCCUUCCCUGCCCUCCCACUUUCCAACAGAGGAUUGAGCAUCA
B4: chr1:137302511:137302512:-_ENSMUSG00000041879_ENSMUST00000161189|perfect_dup|motif|central (ssRNA)
RNA: GGGAGUUCUACAGUCCGACGAUCCUUAACAGUGCUUUUGAAUUUGCUAUUUUCUAGUAGAGCAUGGACAAAUUCAAAAAUGCGGAAGACGAGAUUUUCAAAGCCCAGGACUUCACCAUCAGAAUCCACAGGAUCUUCUACUUCCAACAGAGGAUUGAGCAUCA
B5: chr7:44244176:44244177:+_ENSG00000106636_ENST00000223369|hu_mus|hu_hu_hu_mus_False|18_108 (ssRNA)
RNA: GGGAGUUCUACAGUCCGACGAUCACUAUCAUUCCGGACGUAGACAUGGCAAAGAUACUCUUGUUCUUUGACAGAAGCUCUGCUGCCUUUCCCCGAGCGUUCCACAAUCAGUUGACUCGUGAAGGUCAUGAAUUCCUGCACACUCAACAGAGGAUUGAGCAUCA
B6: chr16:33496766:33496767:+_ENSMUSG00000022811_ENSMUST00000165418|mus_mus|motif|central (ssRNA)
RNA: GGGAGUUCUACAGUCCGACGAUCUGAUCCAACAUUCUCUGACUGGGUGACUUCAGGUACAUCGGAAGAAUUGAUUGAUAUGCGGGAAGUCACUUCAGUAUCUGCAACGCUGAAGGAAAUCUCAUGCUGUCCAUUAGGUUUGUGCAACAGAGGAUUGAGCAUCA

This is one part of the list.

The experiment addresses T1, UNK ZnF1-3. As to the kind of experiment: nsRBNS (natural sequence RNA bind-n-seq); RBNS binding buffer (assumed for nsRBNS): 25 mM Tris pH 7.5, 150 mM KCl, 3 mM MgCl2, 0.01% Triton X-100, 500 ug/ml BSA, 20 U/ml SUPERase-In, 4 C; UNK is unkempt and MSI1 is Musashi-1; names of the RNAs are library labels; protein concentration not given here; high values mean tight binding.
For the molecule B1, the binding signal is 0.772 enrichment R.

In the case of B2, the binding signal came out at 0.874 enrichment R.

The molecule B3 registered a binding signal of 1.18 enrichment R.

Consider B4, for which the binding signal is 1.17 enrichment R.

The molecule B5 returned a binding signal of 0.652 enrichment R.

Regarding B6, the binding signal worked out at 0.644 enrichment R.

For the origin of these results see PMC12136788.
